The results in this text go back to PMC9911399, “Two distinct binding modes provide the RNA-binding protein RbFox with extraordinary sequence specificity”.

Where a chain is given by its changes, count along the chain named. The list shows a part of the results.

T1: RBFOX1 RRM (Homo sapiens, UniProt Q9NWB1 109-208)
T1 sequence: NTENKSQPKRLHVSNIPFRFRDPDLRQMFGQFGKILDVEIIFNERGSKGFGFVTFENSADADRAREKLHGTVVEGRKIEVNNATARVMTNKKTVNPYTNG

B1: UCGCUGU (DNA:RNA)
RNA: GGGAGACCGGAAUUCAGAUUGUCCUCGCUGUUUAAAUCCCGUCGUAGCCACCA
DNA 1: CAATCTGAATTCCGGTCTCCC
DNA 2: TGGTGGCTACGACGGGATT
B2: AAUUGUC (DNA:RNA)
RNA: GGGAGACCGGAAUUCAGAUUGUCCAAUUGUCUUAAAUCCCGUCGUAGCCACCA
DNA 1: CAATCTGAATTCCGGTCTCCC
DNA 2: TGGTGGCTACGACGGGATT
B3: AAUGGUC (DNA:RNA)
RNA: B2 RNA with U28G
DNA 1: CAATCTGAATTCCGGTCTCCC
DNA 2: TGGTGGCTACGACGGGATT
B4: GUCGGAG (DNA:RNA)
RNA: B2 RNA with A25G, A26U, U27C, U28G, U30A, C31G
DNA 1: CAATCTGAATTCCGGTCTCCC
DNA 2: TGGTGGCTACGACGGGATT
B5: GCGCCAC (DNA:RNA)
RNA: B1 RNA with U25G, U29C, G30A, U31C
DNA 1: CAATCTGAATTCCGGTCTCCC
DNA 2: TGGTGGCTACGACGGGATT
B6: GAAGAUU (DNA:RNA)
RNA: B2 RNA with A25G, U27A, U28G, G29A, C31U
DNA 1: CAATCTGAATTCCGGTCTCCC
DNA 2: TGGTGGCTACGACGGGATT
B7: UAGGAGU (DNA:RNA)
RNA: B1 RNA with C26A, C28G, U29A
DNA 1: CAATCTGAATTCCGGTCTCCC
DNA 2: TGGTGGCTACGACGGGATT
B8: UCGCAUG (DNA:RNA)
RNA: B1 RNA with U29A, G30U, U31G
DNA 1: CAATCTGAATTCCGGTCTCCC
DNA 2: TGGTGGCTACGACGGGATT
B9: UGUGCGC (DNA:RNA)
RNA: B2 RNA with A25U, A26G, U28G, G29C, U30G
DNA 1: CAATCTGAATTCCGGTCTCCC
DNA 2: TGGTGGCTACGACGGGATT
B10: AUAUUAC (DNA:RNA)
RNA: B2 RNA with A26U, U27A, G29U, U30A
DNA 1: CAATCTGAATTCCGGTCTCCC
DNA 2: TGGTGGCTACGACGGGATT
B11: GUCACCG (DNA:RNA)
RNA: GGGAGACCGGAAUUCAGAUUGUCCGUCACCGUUAAAUCCCGUCGUAGCCACCA
DNA 1: CAATCTGAATTCCGGTCTCCC
DNA 2: TGGTGGCTACGACGGGATT
B12: UACCGGG (DNA:RNA)
RNA: B1 RNA with C26A, G27C, U29G, U31G
DNA 1: CAATCTGAATTCCGGTCTCCC
DNA 2: TGGTGGCTACGACGGGATT
B13: UUUCGCG (DNA:RNA)
RNA: B11 RNA with G25U, C27U, A28C, C29G
DNA 1: CAATCTGAATTCCGGTCTCCC
DNA 2: TGGTGGCTACGACGGGATT
B14: CUUUAAG (DNA:RNA)
RNA: B2 RNA with A25C, A26U, G29A, U30A, C31G
DNA 1: CAATCTGAATTCCGGTCTCCC
DNA 2: TGGTGGCTACGACGGGATT
B15: GAUCAUC (DNA:RNA)
RNA: B2 RNA with A25G, U28C, G29A
DNA 1: CAATCTGAATTCCGGTCTCCC
DNA 2: TGGTGGCTACGACGGGATT
B16: GACACUG (DNA:RNA)
RNA: B11 RNA with U26A, C30U
DNA 1: CAATCTGAATTCCGGTCTCCC
DNA 2: TGGTGGCTACGACGGGATT
B17: AUUUUCC (DNA:RNA)
RNA: B2 RNA with A26U, G29U, U30C
DNA 1: CAATCTGAATTCCGGTCTCCC
DNA 2: TGGTGGCTACGACGGGATT
B18: UAUACUG (DNA:RNA)
RNA: B2 RNA with A25U, U28A, G29C, C31G
DNA 1: CAATCTGAATTCCGGTCTCCC
DNA 2: TGGTGGCTACGACGGGATT
B19: GAGUAGC (DNA:RNA)
RNA: B2 RNA with A25G, U27G, G29A, U30G
DNA 1: CAATCTGAATTCCGGTCTCCC
DNA 2: TGGTGGCTACGACGGGATT
B20: CUGUCUG (DNA:RNA)
RNA: B11 RNA with G25C, C27G, A28U, C30U
DNA 1: CAATCTGAATTCCGGTCTCCC
DNA 2: TGGTGGCTACGACGGGATT
B21: AGGACGG (DNA:RNA)
RNA: B11 RNA with G25A, U26G, C27G, C30G
DNA 1: CAATCTGAATTCCGGTCTCCC
DNA 2: TGGTGGCTACGACGGGATT
B22: AUCGUAU (DNA:RNA)
RNA: B11 RNA with G25A, A28G, C29U, C30A, G31U
DNA 1: CAATCTGAATTCCGGTCTCCC
DNA 2: TGGTGGCTACGACGGGATT
B23: UCCCAUG (DNA:RNA)
RNA: B1 RNA with G27C, U29A, G30U, U31G
DNA 1: CAATCTGAATTCCGGTCTCCC
DNA 2: TGGTGGCTACGACGGGATT
B24: AGAUGAA (DNA:RNA)
RNA: B2 RNA with A26G, U27A, U30A, C31A
DNA 1: CAATCTGAATTCCGGTCTCCC
DNA 2: TGGTGGCTACGACGGGATT
B25: CUCGUAA (DNA:RNA)
RNA: B11 RNA with G25C, A28G, C29U, C30A, G31A
DNA 1: CAATCTGAATTCCGGTCTCCC
DNA 2: TGGTGGCTACGACGGGATT
B26: GUGUUGG (DNA:RNA)
RNA: B11 RNA with C27G, A28U, C29U, C30G
DNA 1: CAATCTGAATTCCGGTCTCCC
DNA 2: TGGTGGCTACGACGGGATT
B27: UGCAACG (DNA:RNA)
RNA: B11 RNA with G25U, U26G, C29A
DNA 1: CAATCTGAATTCCGGTCTCCC
DNA 2: TGGTGGCTACGACGGGATT
B28: ACAGGAC (DNA:RNA)
RNA: B2 RNA with A26C, U27A, U28G, U30A
DNA 1: CAATCTGAATTCCGGTCTCCC
DNA 2: TGGTGGCTACGACGGGATT
B29: UUAACAG (DNA:RNA)
RNA: B11 RNA with G25U, C27A, C30A
DNA 1: CAATCTGAATTCCGGTCTCCC
DNA 2: TGGTGGCTACGACGGGATT
B30: UGUAUAC (DNA:RNA)
RNA: B2 RNA with A25U, A26G, U28A, G29U, U30A
DNA 1: CAATCTGAATTCCGGTCTCCC
DNA 2: TGGTGGCTACGACGGGATT
B31: CACUCAU (DNA:RNA)
RNA: B2 RNA with A25C, U27C, G29C, U30A, C31U
DNA 1: CAATCTGAATTCCGGTCTCCC
DNA 2: TGGTGGCTACGACGGGATT

In the assay the target is T1, RBFOX1 RRM. Kind of assay: EMSA; HiTS-Eq, 1 nM pool, 10 min; buffer printed only for the single-RNA assays: 10 mM Tris pH 7.5, 150 mM NaCl, 3.4 mM EDTA, 0.001% NP-40, 30 C. Particulars: tags: His6 N-terminal (pET28a); label: 5' 32P. The procedure, abridged:
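Purified wild-type or mutant RbFox RRM at increasing concentrations was equilibrated with 1 nM of 5′-radiolabelled RNA carrying 7 randomized nucleotides for 10 min in 50 µL. Unbound RNA was separated by 8% native PAGE and sequenced. Relative association constants came from read-count changes of each RNA species compared with the control reaction, normalised to the cognate motif.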
As for B1, the binding signal was 0.0158 KA relative to UGCAUGU.
As to B2, the binding signal was 0.012 KA relative to UGCAUGU.
As for B3, the figure is 0.0155 KA relative to UGCAUGU.
Turning to B4, the binding signal is 0.0107 KA relative to UGCAUGU.
The same measure for B5: 0.00734 KA relative to UGCAUGU.
As for B6, the figure is 0.0102 KA relative to UGCAUGU; as for B7, 0.00816 KA relative to UGCAUGU; as for B8, 0.809 KA relative to UGCAUGU.
As for B9, the figure is 0.0248 KA relative to UGCAUGU; as for B10, 0.00166 KA relative to UGCAUGU; as for B11, 0.00574 KA relative to UGCAUGU.
Turning to B12, the binding signal is 0.0072 KA relative to UGCAUGU.
The same measure for B13: 0.0181 KA relative to UGCAUGU; for B14: 0.00803 KA relative to UGCAUGU.
As for B15, the figure is 0.00783 KA relative to UGCAUGU; as for B16, 0.0175 KA relative to UGCAUGU; as for B17, 0.00413 KA relative to UGCAUGU.
The same measure for B18: 0.0121 KA relative to UGCAUGU.
B19: the binding signal is 0.0126 KA relative to UGCAUGU.
The same measure for B20: 0.0306 KA relative to UGCAUGU.
As for B21, the figure is 0.0243 KA relative to UGCAUGU; as for B22, 0.00592 KA relative to UGCAUGU; as for B23, 0.000313 KA relative to UGCAUGU.
The same measure for B24: 0.0136 KA relative to UGCAUGU; for B25: 0.0035 KA relative to UGCAUGU; for B26: 0.0227 KA relative to UGCAUGU.
Consider B27, for which the binding signal was 0.0197 KA relative to UGCAUGU.
As for B28, the figure is 0.00803 KA relative to UGCAUGU; as for B29, 0.00542 KA relative to UGCAUGU; as for B30, 0.00888 KA relative to UGCAUGU.
The same measure for B31: 0.00133 KA relative to UGCAUGU.
